Source: ChEMBL document CHEMBL4888484, “Replenishing the malaria drug discovery pipeline: Screening and hit evaluation of the MMV Hit Generation Library 1 (HGL1) against asexual blood stage Plasmodium falciparum ,using a nano luciferase reporter read-out” (2022)
Screen size: about 150,000 compounds; about 540 (0.36%) showed an effect of 50% or more. The list shows a part of the results.

tested on: Plasmodium falciparum; experiment: Primary screen in NF54 nanoGlo assay, in single point, at 2uM, 72h; a lower Z score goes with more inhibition; type: functional, Erythrocyte; details: timepoint 72 hour

SMILES	% Inhibition	Z score
Cc1cn(C(C)(C)C(=O)Nc2ccn(CC(=O)O)n2)nc1C(F)(F)F	-5%	0.77
CCN1C(=O)Cc2c(C)nc(-c3ccc(OC)cc3)nc21	-3%	0.39
CCOC(=O)c1nnn(CC(N)=O)c1-c1ccc2c(c1)OCO2	10%	-1.31
CCCOC1(CNC(=O)c2cccc3nn[nH]c23)CCCCC1	-13%	1.83
CC1CCN(Cc2ccc(-c3ncnn3-c3cccnc3)o2)CC1	-12%	1.59
O=C(Cc1n[nH]c2c1CCCC2)N[C@H]1CCCOc2c(Cl)cccc21	-6%	1.13
NC(=O)c1ccc(CN2CCN(C(=O)C3=CCCC3)CC2)cc1	-6%	0.74
O=S(=O)(Nc1cc(-c2c(O)ccc3ccccc23)c(O)c2ccccc12)c1ccccc1	-15%	2.52
CC1(C)Cc2cccc(OCCNC(=O)c3nc(N4CCOCC4)ncc3Cl)c2O1	-9%	1.47
COCCNC(=O)Nc1ccc(N2CC(OC)C2)cc1	-17%	2.66
O=S1(=O)CC(CS(=O)(=O)N[C@@H]2COc3ccccc3C2)C1	-3%	0.61
Cc1onc(C(=O)N2CC3(C2)C[C@](C)(O)CO3)c1CN1CCOCC1	2%	-0.35
CC(C)c1cccc(C(=O)N2CCC[C@H](C)CC2)n1	-5%	0.98
Cc1cccnc1C[C@H](C)NC(=O)c1nc(C(C)C)cs1	-2%	0.37
Cc1ccnn1CC(=O)N1CC[C@H](c2ccc3c(c2)OCO3)[C@@H](O)C1	-6%	1.12
Cc1cccnc1-c1noc(C2(O)CCCCC2)n1	-8%	0.79
CN(Cc1nnc[nH]1)S(=O)(=O)N1CCC2(CCCCC2)CC1	-8%	1.46
Cc1nn(C)c(C)c1NC(=O)c1cc2c(C)nn(-c3ccccc3)c2s1	-8%	1.72
O=C(c1ccnc(OCC2CC2)c1)N1CCCC1	-12%	2.33
Cc1cccc(C(=O)N2CCC(c3c[nH]cn3)CC2)c1C	2%	-0.2
O=S(=O)(CCC(F)(F)F)NC[C@@H](c1ccco1)n1cccn1	5%	-0.7
c1coc(-c2nc(CN3CCN(c4nccs4)CC3)cs2)c1	-4%	0.76
Cc1ccc(C(=O)N2C[C@H]3CCC[C@@H](C3)C2)cc1O	-15%	1.37
CNC(=O)c1ccc(CN(C)[C@@H](C)c2ncc(C(C)(C)C)o2)o1	-1%	0.13
